Source: PubChem BioAssay AID1240 (Sanford-Burnham Center for Chemical Genomics, 2008)
Screen size: about 50,000 compounds; about 800 (1.6%) showed an effect of 50% or more. The list shows a part of the results.

Each molecule was assayed against Bcl-2-like protein 10 (Homo sapiens) (UniProt Q9HD36) (assay: TR3 peptide-Bcl-B binding displacers, biochemical primary FP assay, phenotype converters (AID 1240;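 note: 0% = Bcl-B with tracer peptide and DMSO and 100% = tracer peptide lacking Bcl-B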)). Conditions: GST-Bcl-B / FITC-TR3 peptide fluorescence polarization; stronger effect = higher value; compound at 3.75 mg/L.
Chain of UniProt Q9HD36 (Q9HD36 whole entry, looked up): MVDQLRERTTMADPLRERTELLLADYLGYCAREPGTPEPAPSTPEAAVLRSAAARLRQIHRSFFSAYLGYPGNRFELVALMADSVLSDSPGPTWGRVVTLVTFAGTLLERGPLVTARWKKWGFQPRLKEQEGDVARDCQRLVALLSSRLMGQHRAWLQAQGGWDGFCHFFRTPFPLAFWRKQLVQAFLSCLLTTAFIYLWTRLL
Work on `COC(=O)c1ccccc1NC(=O)c1c(C)c(-c2ccc(C)cc2)nc2ccccc12` yielded a displacement of -51.1%.
With `COc1ccccc1C(=O)NN1C(=O)/C(=C/c2cccc(Br)c2)SC1=S` the displacement was 43.6%.
For `CCCc1noc(-c2ccccc2Cl)n1`, the displacement was 17%.
`O=C(CCn1c2ccccc2c2ccccc21)N/N=C/c1ccccc1O` showed a displacement of 0.8%.
Molecule `COc1ccc(CN2CCN(C(=O)c3cccs3)CC2)cc1Br` has a displacement of 3.6%.
`Cc1ccc(OCC(=O)NCc2ccccc2Cl)c(C)c1` showed a displacement of 6.6%.
For `C=CCn1c2ccccc2n2nc(C)c(C(=O)/C=C/c3ccccc3[N+](=O)[O-])c12`, the displacement was 2.7%.
In the case of `COc1cc([N+](=O)[O-])ccc1NC(=O)COc1ccccc1Cl`, the displacement is reported as -2.8%.
With `O=C(/C=C/c1ccco1)NC(=S)N(Cc1ccccc1)c1ccccc1` the displacement was 15.4%.
With `C/C(CC(=O)Nc1ccccc1C(N)=O)=N\NC(=O)c1ccoc1C` the displacement was -5.2%.
`COC(=O)c1cc(NC(=O)/C=C/c2ccc(Cl)cc2)cc(C(=O)OC)c1` showed a displacement of 15.4%.
In the case of `O=C(Nc1ccc(S(=O)(=O)Nc2nccs2)cc1)c1ccc(Cl)c(Cl)c1`, the displacement is reported as 0.3%.
With `COc1ccc(C2Nc3ccccc3NC3=C2C(=O)CC(C)(C)C3)cc1OCc1ccccc1` (stereo not drawn) the displacement was -0.1%.
`COc1ccc(/C=C/C(=O)c2ccc(Cl)cc2)cc1OC` gave a displacement of -2.7%.
Molecule `Cc1ccc(NC(=O)CCCN(C)S(=O)(=O)c2ccc(C)cc2)cc1` has a displacement of 10.3%.
`CC(=O)c1c(OC(=O)c2ccc(Cl)cc2[N+](=O)[O-])ccc2c(C)cc(=O)oc12` was tested, and the displacement was 9.4%.
`O=C(O)CC1S\C(=N/N=C\C=C/c2ccccc2)N(c2ccc(O)cc2)C1=O` (stereo not drawn) gave a displacement of 12.5%.
Molecule `COc1ccc(-c2cc(-c3ccccc3)[nH]c(=O)n2)cc1OC` has a displacement of -5.4%.
With `CCCOc1ccc(N2C(=O)CC(Nc3ccc(OC(F)(F)F)cc3)C2=O)cc1` (stereo not drawn) the displacement was -4.8%.
`O=c1/c(=C/c2ccc(Oc3ccc(C(F)(F)F)cc3[N+](=O)[O-])c(Cl)c2)sc2nc3ccccc3n12` gave a displacement of 17.2%.
`COc1ccc(N(CC(=O)N/N=C/c2ccc(OC3CSC3)cc2)S(=O)(=O)c2ccccc2)cc1` showed a displacement of 3.9%.
Molecule `Cc1cc(=O)n2[nH]c(-c3cccs3)cc2n1` has a displacement of 13.8%.
Molecule `N=c1n(CC(=O)O)c2ccccc2n1Cc1ccc(Cl)cc1` has a displacement of -4%.
With `COc1ccc(CC(=O)N(C)CC(OC)OC)cc1` the displacement was 5.1%.
Work on `COc1ccc2c(c1)-c1c(ssc1=S)C(C)(C)N2C(=O)CSc1ncn[nH]1` yielded a displacement of 13.1%.
Molecule `CCOc1cc(C=C2C(=O)NC(=S)NC2=O)ccc1OCCOCCOc1ccc(C)cc1` has a displacement of -5.2%.
`O=C(CSc1ncccn1)N/N=C/c1ccccc1[N+](=O)[O-]` was tested, and the displacement was -1.6%.
`CCN(CC)c1ccc(/C=N/Nc2nc(-c3cc4cccc(OC)c4oc3=O)cs2)c(O)c1` gave a displacement of -7.3%.
In the case of `O=C(NNS(=O)(=O)Cc1ccccc1)c1ccc([N+](=O)[O-])cc1`, the displacement is reported as 7.5%.
In the case of `CCCCOC(=O)Cn1c(=N)n(CCN2CCOCC2)c2ccccc21`, the displacement is reported as 11.6%.
`O=C(NCC(O)CNC(=O)C(F)(F)C(F)(F)F)C(F)(F)C(F)(F)F` was tested, and the displacement was -4.5%.
`CCOc1ccccc1NC(=O)c1c(NC(=O)c2ccccc2Cl)sc2c1CCC2` was tested, and the displacement was 5.6%.
In the case of `CCCc1ccc(-c2nc(-c3ccc(F)cc3)no2)cc1`, the displacement is reported as -6.8%.
With `COc1ccccc1OCCn1cc(C=O)c2ccccc21` the displacement was -4.5%.
`O=C(NCCCO)C(=O)Nc1ccc(F)cc1` showed a displacement of 10.5%.
Work on `COc1c(-c2cc(-c3ccccc3)n[nH]2)c(O)c(OC)c2occc12` yielded a displacement of 8.3%.
`CCC(C)c1ccc(NC(=O)c2c(-c3ccccc3Cl)noc2C)cc1` (stereo not drawn) gave a displacement of 8.5%.
Molecule `CCCOc1ccc(N2C(=O)CC(N(CCc3ccc(OC)c(OC)c3)C(=O)CC)C2=O)cc1` (stereo not drawn) has a displacement of -2.6%.
Work on `Cc1c(NC(=S)NCCc2ccccc2)c(=O)n(-c2ccccc2)n1C` yielded a displacement of -5%.
In the case of `CC(=O)n1nc(C)c2c(-c3ccccc3)c3cc(Br)ccc3nc21`, the displacement is reported as 3.7%.
`Cc1cc2c(nc3s/c(=C/c4ccccc4)c(=O)n32)c(Br)c1C` was tested, and the displacement was -4.6%.
Work on `COc1ccccc1NC(=O)c1cc2cccc(OC)c2oc1=O` yielded a displacement of -2.8%.
`COc1cccc2sc(NC(=O)c3ccc(C)cc3)nc12` showed a displacement of 2.1%.
`CC(C)(C)C1(C)OC(O)(C(F)(F)F)CC1=O` (stereo not drawn) showed a displacement of -12.7%.
Work on `CS/C(=N\S(=O)(=O)c1ccc(C)cc1)c1ccccc1` yielded a displacement of 6%.
`CSc1nc(-c2ccccc2)nc(N)c1C(C)=O` gave a displacement of 2.6%.
In the case of `Cc1ccc(C(=O)Oc2ccc(C=C3C(=O)NC(=O)NC3=O)cc2)cc1`, the displacement is reported as 8.7%.
Work on `CC(=O)N1c2ccccc2NC2=C(C(=O)CC(C)(C)C2)C1c1ccc(Cl)cc1` (stereo not drawn) yielded a displacement of 5.3%.
`COc1cccc(NC(=O)c2cc(Cl)ccc2Cl)c1` was tested, and the displacement was 11.1%.
With `NC(=O)C(=O)Nc1ccc2c(c1)OCCO2` the displacement was 6.8%.
With `Cc1ccc(OCCOc2cccc(/C=C3/SC(=S)N(C)C3=O)c2)cc1C` the displacement was 29.6%.
`Cc1ccc(CN2CCN(Cc3c[nH]c4ccccc34)CC2)cc1` gave a displacement of -8.2%.
With `CCC(=O)NC(Nc1cc(C)on1)(C(F)(F)F)C(F)(F)F` the displacement was 0.8%.
For `CCOC(=O)N1CCN(C(=O)/C(=C/c2ccc3c(c2)OCO3)NC(=O)c2cccs2)CC1`, the displacement was 0.8%.
Molecule `C=CCN1C(=O)/C(=C\c2ccc(-c3ccc(C(=O)O)cc3)o2)C(=O)NC1=S` has a displacement of -53.6%.
`COc1ccc(N2C(=O)NC(=O)/C(=C/c3ccc(-c4cccc([N+](=O)[O-])c4)o3)C2=O)cc1` was tested, and the displacement was -12.5%.
Work on `O=C(c1cccc(F)c1)N1CCN(c2ccc(F)cc2)CC1` yielded a displacement of -11.6%.
`CC(=O)Oc1ccc(/C=c2/sc3nc(-c4ccc(C(C)(C)C)cc4)nn3c2=O)cc1` showed a displacement of 7.3%.
`COC(=O)c1cccc(N2C(=O)c3cccc([N+](=O)[O-])c3C2=O)c1` was tested, and the displacement was 0.4%.
`COc1ccc(C=Nc2ccccc2C(N)=O)c2ccccc12` showed a displacement of -5.9%.
Molecule `Cn1/c(=N/N=C2CCCC2)sc2ccccc21` has a displacement of 8.2%.
Molecule `CCc1ccc(N2CC(C(=O)NC)CC2=O)cc1` (stereo not drawn) has a displacement of 4%.
Work on `NC(=O)c1c(NC(=O)COc2ccc(Cl)cc2Cl)sc2c1CCCCCC2` yielded a displacement of -7.2%.
With `Cn1c2ccccc2n2cc(-c3ccc([N+](=O)[O-])cc3)nc12` the displacement was -6.3%.
`Cc1ccccc1NC(=S)NCCOc1ccccc1Cc1ccccc1` was tested, and the displacement was 9.4%.
Work on `Cc1ccc(CC(C)CC(=O)Nc2cc(C)ccc2C)cc1` (stereo not drawn) yielded a displacement of -5.6%.
In the case of `Cc1ccc(C2=C/C(=C/c3ccc(-c4ccc([N+](=O)[O-])cc4)o3)C(=O)O2)cc1`, the displacement is reported as -4.1%.
For `Nc1nnc(CC(=O)ON/N=C/c2ccc(-c3ccccc3[N+](=O)[O-])o2)s1`, the displacement was -4.1%.
